# Out of some 310,000 compounds screened, about 11,000 (3.5%) were called active. Inconclusive results, whose numbers are uncertain, are shown with a selection of clear calls. Calls come from the whole dose curve; as a rule, active = well fitted inhibition curve with a large enough effect; inconclusive = small, poorly fitted or top-dose-only effect, or effect the other way; inactive = flat fitted curve, though single readings scatter. No potency is given beside an inconclusive call; the fits are too rough.
# Assay: VP16 counterscreen qHTS for inhibitors of ROR gamma transcriptional activity;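 note: Gal4-VP16 expression switched on by copper sulfate through the metallothionein promoter; nearly all actives have a fitted effect of over 50% in size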
# Settings: Drosophila S2 Gal4-VP16 UAS-luciferase, luminescence, 20 h; activity, negative = inhibition: at 53.6 µM (top of the series)
# % is set by controls: 0 for no effect and ±100 for the full control effect; potency is the fitted concentration of half-maximal effect; tags give direction and shape of the fitted curve.
SMILES,"activity, negative = inhibition",Potency
Cc1oc2c(C)c(O)ccc2c(=O)c1-c1nncn1-c1ccccc1,inactive: 7.13%,–
C(=N\Nc1nc2ccccc2[nH]1)/c1ccc2c(c1)OCCO2,–,"inconclusive [inhibitor, single point]"
O=S(=O)(NCC(O)COCc1ccco1)c1cccs1 (stereo unspecified),inactive: 7.26%,–
C=CCn1c(NC(=O)c2ccccc2)nc2ccccc21,–,active: 1 µM
Nc1nc(SCC(=O)c2cccc([N+](=O)[O-])c2)n[nH]1,–,"inconclusive [inhibitor, single point]"
Cn1c(NC(=O)c2cc(-c3ccc4c(c3)OCO4)nc3ccccc23)cc(=O)n(C)c1=O,–,"inconclusive [inhibitor, single point]"
CC1CCCC(NC(=S)NC(=O)c2cncc(Br)c2)C1C (stereo unspecified),–,active: 5.62 µM
COc1ccc(N(CC(=O)NCc2ccco2)C(=O)CCC(=O)Nc2nccs2)c(OC)c1,inactive: -6.52%,–
O=C(O)c1cccc(CSc2nnc(Cc3ccccc3)o2)c1,–,"inconclusive [inhibitor, full curve]"
Cc1cc(C)c2c(NC(=O)CCl)nn(C)c2n1,–,"inconclusive [activator, single point]"
C=CCn1c(=O)c2ccc(C(=O)NCc3ccccc3)cc2n(Cc2ccc(Cl)cc2)c1=O,inactive: -74.9%,–
CC(Sc1nc(-c2ccccc2)cc(C(F)(F)F)n1)C(=O)N1CCC(C(N)=O)CC1 (stereo unspecified),–,"inconclusive [inhibitor, partial curve, poor fit]"
Clc1cc(Cl)cc(CN2CCSCC2)c1,–,"inconclusive [inhibitor, single point]"
CCN(CC)S(=O)(=O)c1ccc(C)c(NC(=S)N2CCN(Cc3ccc4c(c3)OCO4)CC2)c1,–,active: 22.4 µM
N#Cc1nc(-c2ccccc2)oc1NCC1CCCO1 (stereo unspecified),–,"inconclusive [activator, single point]"
COc1cc(C)c(Cc2cnc(N)nc2N)cc1OC,–,inactive
COc1cccc(CC(=O)NCCCSc2ccccc2)c1,–,"inconclusive [activator, single point]"
CCc1ccc(CN(C)CC(=O)Nc2ccc3c(c2)CCC3)cc1,–,"inconclusive [inhibitor, single point]"
Cc1cc(C)c(C(=O)CSc2nnc(N)s2)cc1C,inactive: -4.68%,–
O=C(N/N=C/c1c[nH]c2ccccc12)c1sc2ccccc2c1Cl,–,"inconclusive [inhibitor, single point]"
COCCCNC(=O)Cn1c(=O)n(CC(=O)N2CCCCC2)c(=O)c2sccc21,inactive: -7.48%,–
O=C(Nc1cccc2ccccc12)N1CCN(c2ccccc2)CC1,–,"inconclusive [inhibitor, single point]"
NC(=S)N/N=C/c1coc2c(ccc3ccccc32)c1=O,–,active: 7.94 µM
COc1ccc(NC(=O)CN2CCN(CC(=O)Nc3ccccc3F)CC2)c(OC)c1,–,"inconclusive [inhibitor, single point]"
O=C(Nc1cccc(Cl)c1)C1CCCN(S(=O)(=O)c2ccc(F)cc2)C1 (stereo unspecified),inactive: -14.4%,–
CCC(C)N(NC(C)=O)c1nc(Cl)nc(NC(C)C)n1 (stereo unspecified),–,"inconclusive [inhibitor, single point]"

SMILES,"activity, negative = inhibition",Potency
O=C(COc1ccccc1C(=O)O)Nc1nc2ccc([N+](=O)[O-])cc2s1,–,"inconclusive [inhibitor, single point]"
COc1cccc([C@@H]2Oc3ccc(OC)cc3/C(=N/O[C@@H](C)CN3CCCc4nc(C)c(C)cc43)[C@@H]2O)c1,inactive: 10.3% [at 10 µM],–
Cc1[nH]nc2c1C1(C(=O)N(Cc3ccc(Cl)cc3)c3ccccc31)C(C#N)=C(N)O2 (stereo unspecified),–,"inconclusive [inhibitor, single point]"
CC(C)[C@H](NC(=O)N1CCn2c1nc1ccccc12)C(=O)N[C@H](C(=O)O)c1ccccc1,–,"inconclusive [inhibitor, partial curve]"
O=C(Nc1cccc(F)c1)C1CCCN(S(=O)(=O)c2cccc3cccnc23)C1 (stereo unspecified),inactive: 13.8%,–
CCOc1ccc(NC(=O)N(C2CCCCCC2)C2CCN(C(C)=O)CC2)cc1,inactive: -0.387%,–
C=CCC(CC(O)COCCC)C(=O)NNC(=S)Nc1ccccc1 (stereo unspecified),–,active: 0.794 µM
CC1C/C(=N\NC(N)=S)c2cc(Cl)ccc2S1 (stereo unspecified),–,active: 2 µM
COCCSc1ccccc1C(=O)NCCCn1ccnc1,–,"inconclusive [inhibitor, single point]"
C=CCn1c(SCC(=O)N2CCc3ccccc3C2)nc2sc(CC)cc2c1=O,–,"inconclusive [inhibitor, single point]"
O=C(c1nnsc1S(=O)c1ccc(Cl)cc1)N1CCOCC1 (stereo unspecified),–,active: 3.55 µM
CC1(C)CC(=O)C2=C(C1)OC1=C(C(=O)CC(C)(C)C1)C2c1ccccc1,inactive: -2.46%,–
Cc1ccc(C)c(Cn2c(O)c(N=NC(=S)Nc3ccccc3F)c3ccccc32)c1,–,"inconclusive [inhibitor, single point]"
O=C(Nc1ccc2c(c1)OCCO2)c1ccccc1F,–,"inconclusive [inhibitor, single point]"
O=C(NNC(=S)Nc1ccccc1)c1cc(-c2cccnc2)nc2ccccc12,inactive: -11.7%,–
CCc1ccc(C(=O)COC(=O)CNC(=O)Cc2ccccc2)cc1,inactive: -4.36%,–
CC(=O)c1c(C)[nH]c(C(=O)CSc2ccc(F)cc2)c1C,–,"inconclusive [inhibitor, single point]"
CNC(=O)c1cc(C(=O)c2ccc(F)cc2Cl)c[nH]1,inactive: -10.1%,–
COc1ccc(NS(=O)(=O)c2ccc(NC(=O)c3ccc(N(C)S(C)(=O)=O)cc3)cc2)cc1,–,"inconclusive [inhibitor, single point]"
CC(C)Cn1c(-c2nn(C)cc2Cl)n[nH]c1=S,–,"inconclusive [inhibitor, single point]"
COC(=O)c1sccc1NC(=O)c1cccc(OC)c1,–,"inconclusive [inhibitor, single point]"
CCSc1nc(C)cc(C)c1S(=O)(=O)c1ccccc1C,–,"inconclusive [inhibitor, single point]"
CCc1ccc(OCCOCC(O)CN2CCN(Cc3ccc(Cl)cc3)CC2)cc1 (stereo unspecified),–,"inconclusive [inhibitor, single point]"
Cc1ccc(C(=O)/C=C/Nc2cccc([N+](=O)[O-])c2)o1,–,"inconclusive [activator, single point]"
CCOC(=O)C1CCCN(CC(=O)Nc2nc(-c3ccccc3)cs2)C1 (stereo unspecified),–,"inconclusive [inhibitor, single point]"
Cn1c(NC(=O)C(C)(C)Oc2ccc(Cl)cc2)cc(=O)n(C)c1=O,inactive: -6.01%,–

SMILES,"activity, negative = inhibition",Potency
Cn1cc(/C=N/NC(=O)c2cc3cc(Br)ccc3o2)c2ccccc21,–,"inconclusive [inhibitor, single point]"
Cn1nnnc1SCC(=O)NCc1cc([N+](=O)[O-])ccc1O,inactive: -2.88%,–
O=C(NCc1cccnc1)c1ccc(Cn2c(=S)[nH]c3ccc(Br)cc3c2=O)cc1,inactive: 23.8%,–
O=[N+]([O-])c1ccc(/C=N/Nc2nc(N3CCCC3)nc(N3CCCC3)n2)o1,inactive: 16.6%,–
C=C(C)COc1ccc(-c2ncncc2Oc2ccc(OC)cc2)c(O)c1,–,"inconclusive [inhibitor, single point]"
Cc1ccc(NC(=O)/C(Cl)=C/c2ccccc2)cc1C,–,"inconclusive [inhibitor, single point]"
COc1c2c(cc3c1C(CC(O)C(C)C)N(C)CC3)OCO2 (stereo unspecified),inactive: -3.75%,–
COCCCn1c(=S)[nH]c2c(sc3ccccc32)c1=O,–,"inconclusive [inhibitor, single point]"
CCCN(CCC)CCCNC(=O)CN1C(=O)CSc2ccc(S(=O)(=O)N3CCOCC3)cc21,inactive: -2.95%,–
Cc1ccc(NC(=O)CN2C(=O)c3ccccc3S2(=O)=O)cc1C,–,"inconclusive [inhibitor, single point]"
CCCNC(=O)c1oc2ccc3c(c2c1C)C(=O)CC(C)(C)O3,inactive: -20.8%,–
Cc1onc(-c2ccccc2Cl)c1C(=O)NCC(=O)O,inactive: -5.61%,–
CCCc1cc(=O)oc2c(C)c(OCC(=O)NCc3ccccn3)ccc12,–,"inconclusive [inhibitor, single point]"
Cn1c(=O)n(Cc2ccc(Cl)cc2)c(=O)c2c1nc1n2CCN1Cc1ccco1,inactive: -0.911%,–
CC(c1n[nH]c(=S)n1-c1ccccc1)N1CCCCC1 (stereo unspecified),inactive: -9.66%,–
S=C(NCc1ccco1)Nc1cc(Cl)c(Cl)cc1Cl,–,"inconclusive [inhibitor, single point]"
CCN1C(=O)c2cccc3c(S(=O)(=O)Nc4ccccc4OC)ccc1c23,–,"inconclusive [inhibitor, single point]"
CS(=O)(=O)N1CCC2(CCCN(c3cccc(-c4ccccc4)c3)C2)CC1,–,"inconclusive [activator, single point]"
COCCNC(=S)N/N=C(\C)c1ccc(OC)cc1,–,active: 1.26 µM
O=C(Nc1nccs1)c1sc2ccccc2c1Cl,–,active: 5.01 µM
Fc1ccc(COc2cccc(CNCc3ccncc3)c2)cc1,–,"inconclusive [inhibitor, single point]"
CCOc1c(OC)cccc1C1CC(=O)Nc2cc3c(cc21)OCCO3 (stereo unspecified),–,"inconclusive [inhibitor, single point]"
COc1cccc(NC(=S)NNC(=O)Cn2nc([N+](=O)[O-])cc2C)c1,inactive: -0.97% [at 10 µM],–
Cc1ccc(-c2csc3nc(C)n(-n4c(C)ccc4C)c(=O)c23)o1,–,"inconclusive [inhibitor, single point]"
